# Source: ChEMBL document CHEMBL4888484, “Replenishing the malaria drug discovery pipeline: Screening and hit evaluation of the MMV Hit Generation Library 1 (HGL1) against asexual blood stage Plasmodium falciparum ,using a nano luciferase reporter read-out” (2022)
# Several values for one entry are separate records, joined by “and”; a condition that tells them apart may be missing. Equal values may be shown once. Among all 150,000 compounds or so, about 540 (0.36%) showed an effect of 50% or more. This is one part of the list.
# Tested on: Plasmodium falciparum
# Assay: Primary screen in NF54 nanoGlo assay, in single point, at 2uM, 72h; a lower Z score goes with more inhibition
# Assay type: functional, Erythrocyte
# Conditions: timepoint 72 hour
SMILES,% Inhibition,Z score,% Inhibition (2 µM)
Cc1ccnc(NC(=O)c2ccc(-c3ccccc3F)o2)c1,-4%,0.69,–
Cn1nc(-c2ccccc2)c2c1c(-c1ccccc1)nn2C,-36%,4.26,–
C[C@]1(C(=O)NCc2nnc3ccccn23)CC1(Cl)Cl,-3%,0.42,–
Cc1ccc(NC(=O)NC(=O)[C@H](C)N(C)CC(=O)Nc2cccc(C)c2C)c(C)c1,-2%,0.17,–
CN(C)CC[C@@H](c1ccc(Cl)cc1)c1ccccn1 [DEXCHLORPHENIRAMINE],28%,-3.19,–
CC(C)Cc1cc(C(=O)N(C)C[C@H](C)CN2CCCC2)on1,-5%,1.04,–
CN(CC(C)(C)O)C(=O)N[C@H]1CCCOc2c1ccc1ccccc21,-11%,1.23,–
CCN1CCC(N2CCc3onc(-c4ccccc4F)c3C2)CC1,-11%,1.55,–
CN(CCC1OCCO1)c1ccc(F)cc1,-7%,0.96,–
O=C(Nc1c[nH]nc1-c1ccccc1)c1ccc2c(c1)C(=O)N(C[C@H]1CCCO1)C2=O,-5%,0.93,–
CCCS(=O)(=O)N1CC(=O)N(c2ccccc2CC)[C@](C)(C(=O)NC2CCCC2)C1,-10%,1.24,–
CC(C)c1cc(Nc2ccc3ccccc3c2)n2nc(-c3cccnc3)nc2n1,7%,-1.21,–
Cn1cc(-c2ccc(C(=O)NC(C)(C)[C@H](O)C(F)(F)F)o2)cn1,-9%,1.22,–
Cc1cc(CN2CCN([C@@H](C)C(=O)Nc3nccs3)CC2)on1,-1%,0.14,–
CCCC[C@H](O)CN1CCN(c2nc(-c3ccccc3)nc(CC)c2Cc2ccccc2F)CC1,7%,-0.92,–
C[C@@H]1CN(CCCC(=O)c2ccc(F)cc2)CC[C@]1(C)O,-3%,0.43,–
CCC(=O)N1CCC[C@@H]1c1nc(C(C)(C)C)co1,-4%,0.6,–
CC(C)c1ccc2nc(-c3cnc4cnccn34)[nH]c(=O)c2c1,-2%,0.24,–
CC1CCC(NC(=O)[C@H]2CCCN(S(=O)(=O)c3ccc4c(c3)NC(=O)CO4)C2)CC1 (some centres not stated),1%,-0.17,–
Cc1cc(CN(C)C(=O)[C@H](C)N2CCN(C)CC2)ccn1,-3%,0.57,–
O=C(c1ccc2[nH]ccc2c1)N1CCC(c2nccn2CC2CC2)CC1,-13%,1.62,–

SMILES,% Inhibition,Z score,% Inhibition (2 µM)
COCCO/C(=N/C(=O)c1ccc2c(c1)OCO2)NCc1ccc2c(c1)OCO2,7%,-0.95,–
COc1cc(NC(=O)NCCC2(O)CCC2)c(OC)c(C)c1OC,-6%,0.6,–
Cc1cc(N2CCN(S(=O)(=O)c3ccccc3F)CC2)nc(N2CCOCC2)n1,1%,-0.21,–
CCOc1cc(CN2CCOC3(CCCC3)C2)ccc1OC,-14%,2.23,–
COc1cc(-c2ncc(F)c(N3CCOCC3)n2)c(Cl)cn1,8%,-1.36,–
Cc1nc(CN(C)CC[C@H]2CCCCO2)n(C)c1C,-15%,2.36,–
COC(=O)N1CCCC[C@H]1C(=O)N(C)CC1(CO)CCC1,-11%,1.73,–
CCc1noc(CON=C(N)c2ccccc2)n1,3%,-0.39,–
Cc1c(CNC2CCCCC2)c(C(=O)O)c(C)n1Cc1ccccc1Cl,-5%,0.63,–
CCn1nc(C)c(C(=O)N[C@@H](C2CCOCC2)C2(CO)CCC2)n1,-6%,0.69,–
COCCc1nnc(NC(=O)[C@H](C)Oc2ccccc2)o1,2%,-0.22,–
Cc1noc(C)c1[C@H](C)NCc1nc(C(C)(C)C)no1,-4%,0.4,–
Cc1cc(C)cc(CN2CCN(C(=O)c3ccc(CO)o3)CC2=O)c1,-17%,1.92,–
Cc1nn(-c2ccc(F)cc2)c2c1c(=O)c(C(=O)Nc1cccc(Cl)c1)cn2C,0%,-0.01,–
CC(C)COCCC(=O)NCCCN1C(=O)CCC1=O,-2%,0.34,–
COc1ccc(NCC(=O)Nc2cc(C(F)(F)F)cc(NC(=O)CNc3ccc(OC)cc3)c2Cl)cc1,-10%,1.34,–
O=C(c1ccc(O)c(F)c1)N1CCCCC12CC2,-15%,1.42,–
CCCN1CCC(N2CCN(S(=O)(=O)c3ccc4ccccc4c3)CC2)CC1,–,–,0% and -6%
C[C@](O)(CNC(=O)Cc1cccc(O)c1)C1CCCC1,-16%,1.33,–
Cc1nn(C)c(C)c1C(=O)C(=O)N1CCC(O)CC1,-4%,0.62,–
CCc1c(C)sc(NC(=O)[C@H](CC)c2ccccc2)c1C(=O)N1CCOCC1,-4%,0.47,–

SMILES,% Inhibition,Z score,% Inhibition (2 µM)
FC(F)(F)c1ccccc1CN1CCc2nncn2CC1,5%,-0.75,–
Cc1c(C(=O)NC[C@H]2CCCC(C)(C)O2)nnn1C(C)C,-2%,0.2,–
NS(=O)(=O)C1CCN(C(=O)[C@H]2C3CCC(CC3)[C@@H]2C(F)(F)F)CC1,-7%,1.37,–
CCOc1cc(CNCc2ccoc2)ccc1O[C@@H](C)C(=O)N(C)C,-11%,1.73,–
CCN(CC1CCCO1)C(=O)NC1C(C)CCCC1C (configuration not stated),-11%,1.49,–
COc1nccnc1N(C)Cc1cnn(C)c1C,-5%,0.98,–
Cc1nnc(NCc2ccc(-c3cccc(Cl)c3Cl)o2)n1C,-8%,0.79,–
O=S(=O)(c1cccnc1NCc1cscn1)N1CCCCC1,-8%,1.49,–
COC(=O)c1ccc(NC(=O)CN2CCN(c3cccc(Cl)c3)C2=O)cc1,0%,0.05,–
CN(Cc1ccc[nH]1)C(=O)NCc1cnccc1C(C)(C)C,-10%,1.09,–
Cc1ccc2nc(-c3ccccc3)c(NC(=O)c3ccc(S(=O)(=O)N4CCOCC4)cc3)n2c1,-50%,5.92,–
Cc1nc(C(=O)NCCCN2CCC[C@H](C)C2)cs1,-13%,1.8,–
CCc1cc(=O)n(Cc2ncc(C(C)(C)C)o2)cn1,-2%,0.25,–
Cc1nn(C)cc1NC(=O)CN(C)C1CCCC1,2%,-0.37,–
O=C(C[C@H]1C(=O)NCCN1Cc1ccc2ccccc2c1)NC1CCC1,-16%,2.3,–
C[C@@H](Cc1ccc2c(c1)CCO2)NC(=O)c1ccsc1,0%,-0.02,–
O=C(C[C@@H]1O[C@H](CNS(=O)(=O)c2ccc(Cl)cc2)[C@@H](O)[C@H]1O)N1CCc2ccccc21,33%,-3.72,–
CN(C)c1noc(CN2CCc3c(F)cc(F)cc3C2)n1,10%,-0.88,–
CCCCCOCC(=O)Nc1cnn2ccccc12,1%,-0.07,–
COc1ccnc(N2C[C@H](NC(=O)C(C)(C)OC)[C@@H](C3CC3)C2)n1,0%,0.04,–
C[C@H]1COCCN1C(=O)NCc1nc2ccccc2[nH]1,-10%,1.44,–

SMILES,% Inhibition,Z score,% Inhibition (2 µM)
Cc1cc(Cl)ccc1NC(=O)N(C[C@H]1CCC(=O)N1)C(C)C,-4%,0.59,–
CN1CC2(CN(C(=O)c3cn(C)nc3C3CC3)C2)OC1=O,-3%,0.51,–
Cc1nc[nH]c1CN1C[C@H]2CC[C@@H](C1)N(C(=O)CCc1c(C)n[nH]c1C)C2,3%,-0.41,–
COc1c(Br)cccc1C(=O)NCc1nonc1C,9%,-1.77,–
C[C@@H](c1ccon1)N(C)C(=O)CCc1nnc(CCCCc2ccccc2)o1,-6%,1.25,–
Cc1cccc(NC(=O)Cn2ncn3c(C)c(C(=O)NCc4ccccc4)c(C)c3c2=O)c1C,-6%,0.91,–
Cc1cc(C(=O)N(Cc2ccccc2)[C@H]2C[C@H]3CC[C@@H](C2)N3C)c(=O)[nH]c1C,-24%,2.61,–
Cc1cc(C)c(C(=O)N2CCC(n3cc(C4CC4)nn3)CC2)cc1C,30%,-2.71,–
CC(C)c1nc(-c2ccc3ccccc3n2)n(CCO)n1,-1%,0.14,–
O=S(=O)(N1CCCCC1)N(Cc1cccs1)Cc1cccs1,-4%,0.38,–
CC(=O)Nc1cc(-c2ccc(F)cc2)nn1-c1nc(-c2ccc(Cl)cc2)cs1,12%,-1.44,–
O=C(Nc1ccccc1N1CCCN(Cc2ccccc2Cl)C1=O)c1ccc(F)cc1F,-6%,0.76,–
Cc1ccc2nc(CCCNC(=O)CN3C(=O)CNC3=O)oc2c1,-8%,1.61,–
O=C(Nc1nnc(CCS(=O)(=O)c2ccccc2)o1)[C@@H]1COc2ccccc2O1,-9%,1.6,–
Cc1nc(NC(C)C)sc1C(=O)NCC(C)C,-1%,0.15,–
O=C(NCc1cccnc1Oc1ccc(F)c(F)c1)[C@@H](O)c1ccccc1,-9%,1.27,–
CCc1nc2c(c(NCc3cccc(OCCOC)c3)n1)CCNCC2,-3%,0.48,–
O=C(O)c1cc2c(cc1C(=O)Nc1ccccc1C(F)(F)F)=[O+]c1ccccc1-c1ccccc1[O+]=2,-2%,0.33,–
CN(CC(=O)N1CCNC(=O)C1)C[C@]1(O)CCc2ccccc21,3%,-0.45,–
C[C@@H](CNC(=O)c1nc2n(n1)CCCN2)c1cccs1,-15%,1.72,–
O=C(c1ccc(-n2cncn2)nn1)N1CCc2ccccc21,1%,-0.2,–
